# In publication PMC4336329 (PLoS ONE, 2015):
# The whole screen tested about 310,000 compounds, of which about 14,000 (4.5%) showed an effect of 50% or more. Effects have a minus sign here. The list shows a part of the results.
# Biological target: human ether-à-go-go-related gene (hERG) potassium channel (human, UniProt Q12809)
# Assay: primary screen, population patch clamp on CHO cells stably expressing hERG
# 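Note: peak tail current of the secondary pulse compared with the same well before compound.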
# human ether-à-go-go-related gene (hERG) potassium channel, sequence (Q12809 whole entry, looked up): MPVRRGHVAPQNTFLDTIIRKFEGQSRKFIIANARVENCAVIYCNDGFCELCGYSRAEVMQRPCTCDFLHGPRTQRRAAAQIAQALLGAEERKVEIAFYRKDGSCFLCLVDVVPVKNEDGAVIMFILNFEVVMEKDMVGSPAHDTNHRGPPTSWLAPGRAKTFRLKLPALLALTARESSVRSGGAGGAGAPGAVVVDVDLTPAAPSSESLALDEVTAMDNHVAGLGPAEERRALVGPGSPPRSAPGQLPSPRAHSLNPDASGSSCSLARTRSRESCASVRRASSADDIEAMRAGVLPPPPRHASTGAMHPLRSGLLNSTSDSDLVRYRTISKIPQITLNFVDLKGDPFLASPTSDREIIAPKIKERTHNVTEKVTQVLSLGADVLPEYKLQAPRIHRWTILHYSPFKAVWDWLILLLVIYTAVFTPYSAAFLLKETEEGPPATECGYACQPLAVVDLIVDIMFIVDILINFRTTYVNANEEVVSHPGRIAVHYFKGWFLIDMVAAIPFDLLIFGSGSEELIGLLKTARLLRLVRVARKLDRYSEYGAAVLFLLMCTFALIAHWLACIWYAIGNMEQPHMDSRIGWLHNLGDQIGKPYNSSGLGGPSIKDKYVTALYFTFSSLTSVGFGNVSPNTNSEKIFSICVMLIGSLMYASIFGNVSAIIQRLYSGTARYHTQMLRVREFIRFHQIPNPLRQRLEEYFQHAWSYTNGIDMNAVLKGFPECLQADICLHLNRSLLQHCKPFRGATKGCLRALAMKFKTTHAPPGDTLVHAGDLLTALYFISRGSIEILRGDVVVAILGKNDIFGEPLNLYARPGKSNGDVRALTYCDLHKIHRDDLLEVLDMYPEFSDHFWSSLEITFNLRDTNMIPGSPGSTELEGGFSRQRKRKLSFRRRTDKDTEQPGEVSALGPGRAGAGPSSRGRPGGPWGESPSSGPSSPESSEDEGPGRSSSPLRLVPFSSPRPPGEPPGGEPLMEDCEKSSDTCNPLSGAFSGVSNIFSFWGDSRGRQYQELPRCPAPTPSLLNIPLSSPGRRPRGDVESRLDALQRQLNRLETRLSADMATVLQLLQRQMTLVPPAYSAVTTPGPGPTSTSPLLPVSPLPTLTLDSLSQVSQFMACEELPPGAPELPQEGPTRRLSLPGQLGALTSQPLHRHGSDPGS
row,SMILES,"hERG current change (%, negative = inhibition) at 10uM [%]"
1,CN1CCN(c2nc(-c3ccccc3)nc3c2oc2ccccc23)CC1,-1.13
2,c1ccc(C2CC3CC4(CCCC4)N2O3)cc1 (stereo not shown),-4.68
3,CC1(c2ccccc2)CC(C)(C)N(C(=O)C2CCCO2)c2ccccc21 (stereo not shown),-17.7
4,C=CCn1c(SC(C)C(=O)NC2CC2)nnc1-c1ccoc1C (stereo not shown),-4.83
5,Cc1nnc(SCC(=O)Nc2cccc(N)c2)n1-c1ccccc1,-10.1
6,CNC(=O)/C(C#N)=C\c1cc(C)n(-c2ccc(N3CCOCC3)cc2)c1C,9.21
7,CN1CCN(c2ccc(CNS(=O)(=O)c3ccsc3)cc2)CC1,-19.4
8,Cn1cc([N+](=O)[O-])c(C(=O)NCC(=O)O)n1,24.8
9,CNC(=O)CSc1nnnn1-c1ccc(C)cc1C,7.63
10,Cc1c(Br)c([N+](=O)[O-])nn1CC(=O)N1CCCc2ccccc21,2.48
11,Cc1cc2c(NC(=O)CCCC(=O)O)cccc2nn1,13.6
12,CC1=CCC(C(=O)O)C(C(=O)O)C1 (stereo not shown),0.736
13,Cl.O=C(N/N=C1/CN2CCC1CC2)c1cccc(O)c1,10.9
14,Cc1ccsc1C(=O)OCC(=O)NCc1ccco1,0.492
15,COc1cc(C(=O)OCC(=O)NCc2ccc(F)cc2)ccc1OCC(C)C,21.1
16,COc1ccc(N2C(=O)CC(N(CCc3ccccc3)C(=O)/C=C/C(=O)O)C2=O)cc1 (stereo not shown),8.06
17,CCOC(=O)C1C(=O)N(O)CC1c1cccc(Oc2ccccc2)c1 (stereo not shown),22.6
18,CCn1c(C(=O)NCCCN2CCc3ccccc3C2)cc2sccc21,-64
19,COc1ccc(NC(=O)C2CCCN(C)C2)cc1OCC(C)C (stereo not shown),-1.9
20,Cc1ccc2c(c1)-c1c(cnn1CC(=O)N(CCC#N)c1ccccc1)CO2,-47.9
21,CC(C)c1c(C(=O)N/N=C/C2CC=CCC2)nnn1-c1nonc1N (stereo not shown),4.85
22,Cc1cccc(NC(=O)CNC(=O)C(NC(=O)Cc2ccccc2)C(C)C)c1C (stereo not shown),-12.4
23,Fc1cccc(CN2CCN(C(=S)NCCc3ccccc3)CC2)c1,9.69

row,SMILES,"hERG current change (%, negative = inhibition) at 10uM [%]"
1,Cn1c(N)c(C(=O)COC(=O)c2cc(C3CC3)nc3ccccc23)c(=O)n(C)c1=O,-30.6
2,COCCN(Cc1cc2cc(C)c(C)cc2nc1Cl)C(=O)Nc1ccccc1,1.39
3,C=CCNc1nnc(C)c2ccccc12,1.57
4,N/C(=N\OS(=O)(=O)c1ccccc1)c1ccccn1,-24.1
5,CN(Cc1ccccc1)C(=O)c1ccccc1-c1ccccc1,-5.82
6,O=C1C(Oc2ccc(Cl)cc2)C(c2ccc3c(c2)OCO3)N1CC1CCCO1 (stereo not shown),-28.3
7,CC(Sc1nnnn1C)C(=O)Nc1nc(-c2ccc(F)c(F)c2)cs1 (stereo not shown),-41.7
8,CCOc1ccccc1NC(=O)c1ccc(C(=O)Nc2ccccc2OCC)nc1,31.4
9,Cn1nc(C(F)(F)F)c2cc(C(=O)Nc3ccc(Cl)cc3)sc21,11.8
10,CCOc1ccccc1-c1nnc(SCC(=O)Nc2ccccc2)o1,-30.2
11,CCOc1ccc(S(=O)(=O)N(C)CC(=O)NCc2ccc3c(c2)OCO3)cc1,-64.4
12,CSc1nc(-c2ccccc2)nc(NC(=O)c2ccccc2)c1C(C)=O,29.8
13,CCN(CC(=O)NC(c1ccccc1)c1ccccc1)Cc1nc2ccccc2c(=O)[nH]1,-32.4
14,Cl.c1ccc(C2CC2)c(OCC2=NCCN2)c1,12.4
15,CCO[C@H]1OC(C(=O)N2CCN(C)CC2)=C[C@@H](c2csc3ccccc23)[C@@H]1CCCO,-19.5
16,O=C(NCc1ccccc1)c1nncc(-c2ccccc2)n1,-4.37
17,COC(=O)c1ccc(N2C(=O)CC(NCc3ccccc3)C2=O)cc1 (stereo not shown),8.14
18,O=C(O)c1ccccc1C(=O)O,-10.4
19,COCCN(CC(=O)Nc1cccc(C)c1C)C(=O)c1cc2ccccc2cc1OC,-26.7
20,Br.C=CCn1c(C)csc1=Nc1ccc(C(=O)O)cc1,13.5
21,O=C(N/N=C/c1ccccc1C(=O)O)c1ccncc1,18.3
22,O=C(CSc1nnc(Cn2c(=O)sc3ccccc32)n1-c1ccccc1)NCc1ccco1,-9.17
23,C/C=C\C(=O)Nc1cccc(C2=NOC3(C2)C[C@@H](C(N)=O)N(C(=O)CC(c2ccccc2)c2ccccc2)C3)c1 (stereo partly shown),-5.69
